Viability of KB3-1 and Nalm-6 cells after 48 h of drug alone (CellTiter-Glo), 11 doses over about 4.5 log units. % of DMSO wells, lower = more cell loss; AC50 from the fitted curve, lower = more potent. No active / inactive call. Nalm-6 was screened in two runs. AC50 is listed only for well-fitted inhibitory curves. KB3-1 is a HeLa-derived carcinoma line, Nalm-6 a B-cell precursor leukaemia line.
Columns and labels:
Nalm-6 [1] = assay: viability (% of DMSO control); higher = more viable cells
Experimental: (§1)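 Eleven-dose screen of the NCATS MIPE 3 library on cells without co-treatment; CellTiter-Glo after 48 h, as % of DMSO wells.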

KB3-1 = assay: as above
Experimental: as §1

Nalm-6 [2] = assay: log AC50 of viability decrease (48 h) (log10 M); higher = less potent
Experimental: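 Eleven-dose screen of the NCATS MIPE 3 library on cells without co-treatment; CellTiter-Glo after 48 h. AC50 from the curve fit; only inhibitory curves of the better fit classes are listed.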

Structure (SMILES) | viability (Nalm-6 [1]; run: 1, 0.00078 µM) [%] | viability (Nalm-6 [1]; run: 1, 0.00234 µM) [%] | viability (Nalm-6 [1]; run: 1, 0.00702 µM) [%] | viability (Nalm-6 [1]; run: 1, 0.0211 µM) [%] | viability (Nalm-6 [1]; run: 1, 0.0632 µM) [%] | viability (Nalm-6 [1]; run: 1, 0.19 µM) [%] | viability (Nalm-6 [1]; run: 1, 0.569 µM) [%] | viability (Nalm-6 [1]; run: 1, 1.71 µM) [%] | viability (Nalm-6 [1]; run: 1, 5.12 µM) [%] | viability (Nalm-6 [1]; run: 1, 15.4 µM) [%] | viability (Nalm-6 [1]; run: 1, 46.1 µM) [%] | viability (Nalm-6 [1]; run: 2, 0.00078 µM) [%] | viability (Nalm-6 [1]; run: 2, 0.00234 µM) [%] | viability (Nalm-6 [1]; run: 2, 0.00702 µM) [%] | viability (Nalm-6 [1]; run: 2, 0.0211 µM) [%] | viability (Nalm-6 [1]; run: 2, 0.0632 µM) [%] | viability (Nalm-6 [1]; run: 2, 0.19 µM) [%] | viability (Nalm-6 [1]; run: 2, 0.569 µM) [%] | viability (Nalm-6 [1]; run: 2, 1.71 µM) [%] | viability (Nalm-6 [1]; run: 2, 5.12 µM) [%] | viability (Nalm-6 [1]; run: 2, 15.4 µM) [%] | viability (Nalm-6 [1]; run: 2, 46.1 µM) [%] | viability (KB3-1; 0.00078 µM) [%] | viability (KB3-1; 0.00234 µM) [%] | viability (KB3-1; 0.00702 µM) [%] | viability (KB3-1; 0.0211 µM) [%] | viability (KB3-1; 0.0632 µM) [%] | viability (KB3-1; 0.19 µM) [%] | viability (KB3-1; 0.569 µM) [%] | viability (KB3-1; 1.71 µM) [%] | viability (KB3-1; 5.12 µM) [%] | viability (KB3-1; 15.4 µM) [%] | viability (KB3-1; 46.1 µM) [%] | log AC50 of viability decrease (Nalm-6 [2]; run: 1) | log AC50 of viability decrease (Nalm-6 [2]; run: 2)
COc1ccc(C(=O)c2c(C)n(CCN3CCOCC3)c3ccccc23)cc1 [Pravadoline] | 81 | 93.5 | 102 | 105 | 111 | 111 | 106 | 122 | 100 | 76.6 | 16.9 | 97.5 | 93.4 | 101 | 97.5 | 103 | 102 | 100 | 109 | 97.5 | 74.4 | 7.89 | 102 | 102 | 100 | 108 | 100 | 92.5 | 109 | 106 | 95.7 | 97.8 | 71.5 | -4.73 | -4.68
CC(C)(C)c1cc(NC(=O)Nc2ccc(-c3cn4c(n3)sc3cc(OCCN5CCOCC5)ccc34)cc2)no1 [Quizartinib] | 89.7 | 91.6 | 101 | 109 | 103 | 102 | 71.1 | 32.1 | 26.9 | 26.4 | 7.54 | 109 | 110 | 107 | 111 | 107 | 104 | 62.2 | 22.3 | 14.5 | 13.2 | 5.62 | 96.4 | 110 | 103 | 99.1 | 99.5 | 90.2 | 95 | 100 | 91.9 | 91.6 | 61.5 | -6.08 | -6.23
COc1cc(F)c(F)c(Nc2ccc(I)cc2F)c1NS(=O)(=O)C1(C[C@H](O)CO)CC1 [RDEA-119] | 110 | 113 | 111 | 114 | 113 | 117 | 117 | 114 | 103 | 102 | 69.4 | 100 | 106 | 105 | 104 | 102 | 107 | 105 | 103 | 95.6 | 95.4 | 28.1 | 95 | 95.2 | 102 | 99.3 | 101 | 101 | 99.2 | 105 | 103 | 101 | 32.6 | -4.68 | –
Nc1nc2ccc(OC(F)(F)F)cc2s1 [Riluzole] | 96.6 | 98 | 111 | 103 | 104 | 113 | 110 | 101 | 99 | 106 | 10.3 | 93 | 105 | 105 | 105 | 102 | 100 | 102 | 98.4 | 102 | 88.5 | 7.64 | 103 | 100 | 106 | 102 | 104 | 101 | 100 | 98.6 | 102 | 92.3 | 56.1 | – | -4.63
CCCn1c(=O)c2[nH]c(C34CC5CC3C[C@@H](C5)C4)nc2n(CCC)c1=O [Rolofylline] | 89 | 96 | 95 | 95.8 | 102 | 98.4 | 104 | 109 | 96.3 | 76.6 | 59.7 | 94.5 | 99.7 | 94.7 | 96.9 | 98.8 | 101 | 106 | 109 | 81.8 | 70.3 | 43 | 95.2 | 97.2 | 99.3 | 100 | 102 | 98.7 | 102 | 81.6 | 93.2 | 94.3 | 59.5 | -4.83 | -4.78
CNCc1ccc(-c2[nH]c3cc(F)cc4c3c2CCNC4=O)cc1 [Rucaparib] | 96.9 | 99.6 | 103 | 109 | 116 | 110 | 111 | 96.5 | 76.2 | 66.2 | 16.1 | 111 | 103 | 104 | 109 | 107 | 107 | 111 | 103 | 95.4 | 85.8 | 31.2 | 102 | 105 | 105 | 108 | 106 | 108 | 110 | 106 | 118 | 115 | 38.8 | -4.78 | -4.68
N#CC[C@H](C1CCCC1)n1cc(-c2ncnc3[nH]ccc23)cn1 [Ruxolitinib] | 119 | 116 | 112 | 119 | 113 | 121 | 120 | 114 | 110 | 100 | 36.2 | 102 | 105 | 111 | 106 | 113 | 111 | 108 | 101 | 107 | 90.2 | 25.5 | 105 | 106 | 101 | 101 | 94.6 | 99.4 | 98.2 | 97.8 | 91.4 | 89.7 | 19.3 | -4.63 | -4.63
CCOc1cc(C(=O)Nc2ccc(Cl)c(-c3nc4ccccc4[nH]3)c2)cc(OCC)c1OCC [SANT-2] | 84.8 | 103 | 103 | 104 | 107 | 108 | 107 | 99.4 | 86.8 | 61.5 | 45.2 | 104 | 96.9 | 109 | 109 | 102 | 109 | 109 | 107 | 88.9 | 71.3 | 43.7 | 97.3 | 97.4 | 90 | 94.1 | 90.7 | 89.3 | 98.9 | 96.3 | 91.5 | 85.7 | 70.1 | -4.98 | -4.83
O=C(Nc1cccc(Cl)c1)Nc1ncc(CCNc2ncnc3ccsc23)s1 [SNS-314] | 65.1 | 59 | 63.7 | 63.2 | 65.8 | 55.9 | 59.6 | 54.4 | 50.8 | 45.2 | 1.77 | 92 | 83.9 | 78.2 | 79.5 | 78.7 | 66.1 | 66.9 | 53.3 | 62.1 | 57 | 1.89 | 99 | 99.3 | 93.7 | 89.9 | 88.7 | 87.2 | 89.7 | 88.5 | 92 | 82 | 13.3 | -4.68 | -4.53
O=C(Nc1ccccc1-c1cn2c(CN3CCNCC3)csc2n1)c1cnc2ccccc2n1 [SRT1720] | 116 | 114 | 121 | 117 | 110 | 114 | 114 | 108 | 109 | 106 | 0.857 | 110 | 109 | 109 | 103 | 107 | 110 | 105 | 103 | 103 | 96.3 | 0.568 | 102 | 105 | 106 | 110 | 109 | 108 | 106 | 112 | 111 | 98.4 | 2 | – | -4.58
CN1CCN(CCOc2cc(OC3CCOCC3)c3c(Nc4c(Cl)ccc5c4OCO5)ncnc3c2)CC1 [Saracatinib] | 124 | 120 | 119 | 121 | 120 | 118 | 106 | 94.3 | 88.8 | 79.3 | 21.1 | 107 | 106 | 106 | 101 | 108 | 109 | 105 | 92.7 | 80.9 | 81.5 | 21.9 | 104 | 105 | 104 | 98.8 | 106 | 107 | 102 | 105 | 107 | 109 | 75 | -4.73 | -4.68
COc1nc(-c2ccc3c(c2)OCO3)n(-c2ccc(NC(=O)CSc3ccccc3)cc2)n1 [Secin H3] | 119 | 114 | 108 | 119 | 121 | 109 | 108 | 108 | 103 | 98.2 | 67.3 | 108 | 99.3 | 107 | 89.2 | 102 | 103 | 98.5 | 101 | 98.7 | 79.8 | 20.3 | 106 | 103 | 106 | 99.2 | 101 | 105 | 102 | 105 | 93.6 | 99.1 | 84.8 | -4.63 | -4.68

Reference: the supplement of paper PMC4996465
